Test results: paper PMC2765508 (Biochemistry, 2009)

Tested on: MP1
Details: 10 μM inhibitor; substrates β-endorphin, dynorphin A and leumorphin

`CC(C)C[C@H](NC(=O)[C@@H](O)[C@H](N)Cc1ccccc1)C(=O)O` [bestatin] was tested, and the “effect on the rate of peptide hydrolysis or the distribution of cleavage products” value was “no effect”.
